PubChem BioAssay (NCI)
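Cultured in 96-well plates, cells were exposed to test compound for 48 hours across five concentrations. At the GI50, growth is halved. TGI: concentration producing complete growth inhibition.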

tested on: NCI-H322M lung; assay: inhibition of tumour cell growth, NCI panel, 48 h

Compound | GI50 [µM] | TGI [µM]
COc1ccc2[nH]c(=O)c(CSc3ccccc3Nc3nccc(-c4ccc(C(F)(F)F)cc4)n3)cc2c1 | 13.8 | 26.7
CSc1ccc(NC(=O)c2ccc3nn(/C(C#N)=C/c4ccccn4)nc3c2)cc1 | 2.06 | 4.77
Cn1cc(-c2cc(N)n3nc(-c4c[nH]c5ccc(F)cc45)cc3n2)c2cccnc21 | 2.9 | 11
O=C1CCC(N2Cc3c(C#CCCCNC(=O)c4ccc(NC(=O)[C@@H]5NC6(CCCCC6)[C@@]6(C(=O)Nc7cc(Cl)ccc76)[C@H]5c5cccc(Cl)c5F)cc4)cccc3C2=O)C(=O)N1 (some centres not stated) | 51.6 | > 100
COc1ccc(CCC2NCCc3c(Br)c4c(c(OC)c32)OCO4)cc1 (configuration not stated) | 6.86 | 40
CCN1CCN(Cc2ccc(C(=O)Nc3cccc(Nc4ccc5c(OC)cccc5n4)c3)cc2C(F)(F)F)CC1 | 3.5 | 14.2
